This is one part of the list.
Tests used:
HSkMC = human skeletal muscle cells; test: cytotoxicity call (relative viability < 0.9); conditions: 10 µM
HepG2 = test: cytotoxicity call (relative viability < 0.9); conditions: 10 µM
S. aureus RN4220 = test: growth inhibition call (relative growth <= 0.2); conditions: 50 µM

Compound	cytotoxicity call (HSkMC)	cytotoxicity call (HepG2)	growth inhibition call (S. aureus RN4220)
Cc1cc(C(=O)Nc2cccc3c2O[C@H](CN(C)S(=O)(=O)c2ccccc2)[C@@H](C)CN([C@H](C)CO)C3=O)n(C)n1	inactive	inactive	inactive
C[C@H](CO)N1C[C@H](C)[C@H](CN(C)C(=O)c2ccc(F)cc2)OCc2ccccc2-c2c(n(C)c3ccccc23)C1=O	inactive	inactive	inactive
Cc1ccc(S(=O)(=O)Nc2ccc3c(c2)C(=O)N([C@H](C)CO)C[C@@H](C)[C@H](CN(C)Cc2ccccc2)OCCCC[C@@H](C)O3)cc1	inactive	inactive	inactive
Cc1ccc(S(=O)(=O)Nc2ccc3c(c2)C(=O)N([C@H](C)CO)C[C@@H](C)[C@H](CN(C)Cc2ccc(C(=O)O)cc2)OCCCC[C@@H](C)O3)cc1	inactive	inactive	inactive
C[C@@H]1CCCCO[C@@H](CN(C)C(=O)Nc2ccc3c(c2)OCO3)[C@@H](C)CN([C@@H](C)CO)C(=O)c2cc(NC(=O)c3ccccc3)ccc2O1	inactive	inactive	inactive
c1cncc(OCc2nnn3c2CNCCC3)c1	inactive	inactive	inactive
C[C@@H]1CN([C@@H](C)CO)S(=O)(=O)c2ccc(C#CC3CCCC3)cc2O[C@@H]1CN(C)Cc1cncnc1	inactive	inactive	inactive
CC=Cc1ccc2n(c1=O)C[C@H]1[C@H](CO)[C@@H](C(=O)NC3CCC3)N(S(C)(=O)=O)[C@@H]21	inactive	inactive	inactive
Cc1ccc(S(=O)(=O)N(C)C[C@@H]2Oc3ccc(NS(=O)(=O)c4c(C)noc4C)cc3CC(=O)N([C@@H](C)CO)C[C@H]2C)cc1	inactive	inactive	inactive
C[C@@H]1CN([C@H](C)CO)C(=O)c2cc(NC(=O)Cc3cn(C)c4ccccc34)ccc2O[C@@H]1CN(C)C(=O)Nc1cccc2ccccc12	active	inactive	inactive
O=C(CN1CCNCC1)N1CCCC1	inactive	inactive	inactive
C[C@H]1CN([C@@H](C)CO)C(=O)Cc2cc(NC(=O)Nc3ccc(F)cc3)ccc2O[C@@H]1CN(C)S(C)(=O)=O	inactive	inactive	inactive
CCCCCCCCCCCCCCCC(=O)OC[C@@H](NC(=O)C(Cl)Cl)[C@H](O)c1ccc([N+](=O)[O-])cc1	inactive	inactive	inactive
C[C@H](CO)N1C[C@H](C)[C@H](CN(C)Cc2cncnc2)Oc2cc(C3=CCCCC3)ccc2S1(=O)=O	inactive	inactive	inactive
C[C@@H]1CN([C@H](C)CO)C(=O)c2cc(NC(=O)CCCN(C)C)ccc2O[C@@H]1CN(C)S(=O)(=O)c1ccc(F)cc1	inactive	inactive	inactive
C[C@@H]1CN([C@@H](C)CO)C(=O)c2cccc(NS(=O)(=O)c3cn(C)cn3)c2O[C@H]1CN(C)Cc1ccc2c(c1)OCO2	inactive	inactive	inactive
COc1ccc([C@@H]2CC=CC[C@H](C)Oc3ccccc3C(=O)N(C)[C@@H](Cc3ccccc3)C(=O)N2)c(OC)c1	active	inactive	inactive
COc1ccc(NC(=O)N(C)C[C@@H]2Oc3ccc(NC(=O)CCN4CCOCC4)cc3CC(=O)N([C@H](C)CO)C[C@@H]2C)cc1	inactive	inactive	inactive
COc1cc(OC)c2ccc(=O)oc2c1	inactive	inactive	inactive

Compound	cytotoxicity call (HSkMC)	cytotoxicity call (HepG2)	growth inhibition call (S. aureus RN4220)
C[C@@H]1CCCCO[C@H](CN(C)Cc2ccc(C(=O)O)cc2)[C@@H](C)CN([C@H](C)CO)C(=O)c2cc(NS(=O)(=O)c3ccc(Cl)cc3)ccc2O1	inactive	inactive	inactive
C[C@@H]1CN([C@@H](C)CO)C(=O)Cc2cc(NC(=O)Nc3cccc4ccccc34)ccc2O[C@H]1CN(C)S(=O)(=O)c1cccs1	inactive	inactive	inactive
C=CCNC(N)=S	inactive	inactive	inactive
C[C@@H]1CN([C@@H](C)CO)C(=O)c2cc(NC(=O)CCN3CCOCC3)ccc2O[C@H]1CN(C)S(=O)(=O)c1ccccc1	inactive	inactive	inactive
C[C@@H]1CCCCO[C@@H](CN(C)Cc2ccncc2)[C@@H](C)CN([C@H](C)CO)C(=O)c2cc(NC(=O)Nc3ccc4c(c3)OCO4)ccc2O1	inactive	inactive	inactive
C[C@@H]1CCCCO[C@@H](CN(C)C(=O)Nc2ccccc2)[C@@H](C)CN([C@H](C)CO)C(=O)c2cc(NC(=O)Nc3ccccc3)ccc2O1	inactive	inactive	inactive
C[C@@H]1CN([C@@H](C)CO)C(=O)c2cc(C#CC3CCCCC3)cnc2O[C@@H]1CN(C)C(=O)Cc1ccccn1	inactive	inactive	inactive
CCS(=O)(=O)Nc1ccc2c(c1)C(=O)N(C)[C@@H]1CC[C@@H](CC(=O)N[C@@H]3CCN(Cc4ccccc4)C3)O[C@@H]1CO2	inactive	inactive	inactive
COC(=O)C1=C(C)NC(C)=C(C(=O)OCCCN2CCC(c3ccccc3)(c3ccccc3)CC2)[C@H]1c1cccc([N+](=O)[O-])c1	active	active	inactive
C=C1C(=O)O[C@@H]2/C=C(\CO[C@@H]3O[C@H](CO)[C@@H](O)[C@H](O)[C@H]3O)CC/C=C3\C[C@H](OC3=O)[C@@H]12	inactive	inactive	inactive
C[C@H](CO)N1C[C@H](C)[C@H](CN(C)S(=O)(=O)c2cccs2)Oc2ccc(NC(=O)CCN3CCOCC3)cc2C1=O	inactive	inactive	inactive
C[C@@H]1CCCCO[C@@H](CN(C)Cc2ccc(Cl)c(Cl)c2)[C@@H](C)CN([C@@H](C)CO)C(=O)c2cc(NS(=O)(=O)c3ccccc3)ccc2O1	active	inactive	inactive
CCCC#Cc1ccc2c(c1)O[C@H](CN(C)C(=O)c1cnccn1)[C@H](C)CN([C@H](C)CO)S2(=O)=O	inactive	inactive	inactive
COc1ccc(NC(=O)N(C)C[C@H]2OCCCC[C@H](C)Oc3ccc(NC(=O)C4CCCCC4)cc3C(=O)N([C@H](C)CO)C[C@@H]2C)cc1	inactive	inactive	inactive
Nn1c(Cn2ccnc2)nnc1Cn1ccnc1	inactive	inactive	inactive
C[C@@H]1CN([C@H](C)CO)C(=O)c2cc(NS(=O)(=O)c3ccc(Cl)cc3)ccc2O[C@@H](C)CCCCO[C@@H]1CN(C)C(=O)c1ccccc1	inactive	inactive	inactive
C[C@@H]1CN([C@@H](C)CO)C(=O)c2cc(NS(=O)(=O)c3ccccc3)ccc2O[C@@H](C)CCCCO[C@H]1CN(C)C(=O)c1ccccc1	inactive	inactive	inactive
C[C@@H]1CN([C@H](C)CO)C(=O)c2cc(C#CCN(C)C)cnc2O[C@H]1CN(C)S(=O)(=O)c1cn(C)cn1	inactive	inactive	inactive

Reference: the antibiotic and cytotoxicity screens of Wong et al. (2023)
